Experimental data reported in PubChem BioAssay AID760 (NMMLSC, 2007).
The whole screen tested about 190,000 compounds, of which about 360 (0.19%) were called active. The inconclusive results got no clear call from the source; some entries with a clear call stand among them for comparison.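 How the source made its calls: active means GTP binding activity at least 20 points away from 100%, either lowered or raised; inconclusive means signal likely due to the compound's own green fluorescence; inactive means the rest.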

Molecular target: Ras-related protein Rab-2A (Canis lupus familiaris) (UniProt P61105)
Experiment: Rab2 wt fluorescent GTP binding changes, either direction – biochemical, dog, bead-based flow cytometry, multiplex, primary screen (AID 760);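 further: 0% = beads with excess unlabeled GTP and 100% = no-compound control corrected for plate trend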
Conditions: GST-Rab2 wt beads, Bodipy-GTP binding, at 10 µM

GTP binding activity, inconclusive:
O=C(NC(=S)Nc1ccc(N2CCOCC2)c(Cl)c1)c1cccs1 95%
COc1ccc(CNC(=O)C2CC(=O)N(c3ccc(OCC(=O)N4C(C)CCCC4C)cc3)C2)cc1 (centres undefined) 205%
Cc1cccc(NC(=O)CN2C(=O)N/C(=C/c3cc(C)n(C)c3C)C2=O)c1 96%
CC(C)CCN(C(=O)Cc1ccc(Cl)c(Cl)c1)c1c(N)n(Cc2ccccc2)c(=O)[nH]c1=O 90%
O=C(CSc1nc2ccccc2c(=O)n1CCCN1CCOCC1)c1c[nH]c2ccccc12 99%
Cc1cc(/C=C2\SC(=S)N(Cc3ccco3)C2=O)c(C)n1-c1cccnc1 183%
O=C(CSc1nc2ccccc2c(=O)n1CCCO)NCc1ccccc1 108%
Cc1nn(C)c(C)c1N=Cc1c(O)ccc2ccccc12 95%
CCOC(=O)c1sc(Nc2nc3cc4c(cc3s2)OCO4)cc1C 318%
O=C(Cn1c2ccc(F)cc2c2nc3n(c(=O)c21)CCS3)Nc1ccc(Cl)cc1F 94%
O=C(O)c1ccccc1C(=O)Nc1ccc(Br)c2cccnc12 88%
CCN(CC)P(=O)(Nc1ccccc1Br)c1ccc(N(C)C)cc1NC(=O)c1ccco1 (centres undefined) 86%
Cc1ccc(C(=O)NCCSC2CCCCC2)cc1S(=O)(=O)Nc1ccccc1 108%
COc1cccc(/C=N/n2cnnc2)c1OCc1ccccc1 102%
CCCn1nc2cc(C(=O)N(CC)c3ccc(OC)cc3)ccc2c1OCC 103%
O=C(Nc1ccc2nc(-c3cccs3)c(-c3cccs3)nc2c1)N1CCOCC1 91%
Cc1ccc(NC(=O)Nc2cccc(Cl)c2)c(C(=O)O)c1 90%
O=C(CN1C(=O)c2ccccc2S1(=O)=O)N1CCN(c2ccc(F)cc2)CC1 104%
CC1Cc2ccccc2N1C(=O)CN1C(=O)CN(C)C(=O)c2ccccc21 (centres undefined) 102%
Cc1nc(N)nc(Nc2ccc(Cl)cc2)c1Br 103%
O=C1OC(Cc2ccccn2)C(O)=C1C1=NCCCN1 (centres undefined) 100%
COc1cc(NC(=O)c2ccc(COc3ccccc3Br)o2)cc(OC)c1OC 101%
Cn1c(N/N=C/c2ccccc2)nc2sc3c(c2c1=O)CCC3 81%
Nc1nc(CSC(=S)N2CCCCC2)nc(Nc2ccccc2)n1 91%
CCCNC(=O)COc1ncnc2sc(C)c(C)c12 101%
CCCC(Oc1ccc(Br)cc1)c1nc2c3cc(OC)c(OC)cc3nc(=S)n2[nH]1 (centres undefined) 85%
CCn1c(NC(=O)Nc2cccc(C)c2C)cc2sccc21 102%
CCCCNC(=S)NC(=O)c1ccccc1Br 99%
O=C(COc1cccc(NC(=O)c2ccco2)c1)c1ccc(F)cc1 102%
Cn1c(=O)c2cc(S(=O)(=O)Nc3cc(C(=O)O)cc(C(=O)O)c3)ccc2n(C)c1=O 86%
CCC(=O)Nc1ccc2c(c1)OCCO2 102%
O=C(NCc1cccnc1)C(=O)Nc1nc2ccccc2s1 90%
Cc1ccc2nc(-c3ccc(NC(=O)COC(=O)c4ccc([N+](=O)[O-])o4)cc3)sc2c1 105%
Cc1ccc(C(=O)Nc2ccccc2C(=O)O)cc1S(=O)(=O)NCc1ccccc1 92%
C=CCn1c(SC)nc2sc3c(c2c1=O)CCc1ccccc1-3 102%
C[C@@H]1C[C@H](Nc2ccccc2)c2ccccc2N1C(=O)c1cccnc1 102%
COc1cccc(-n2nnc3c(=O)n(Cc4ccc(Cl)cc4)cnc32)c1 92%
Clc1cccc(Cl)c1/C=N\Nc1nccs1 12%

GTP binding activity, active:
NS(=O)(=O)c1ccc(Nc2nc(-c3ccc(O)cc3O)cs2)cc1 77%
COc1cc(CCNc2ccc3nnc(-c4ccccc4)n3n2)cc(OC)c1OC 74%
Cc1cc(N/N=C/c2ccc(O)cc2O)nc(-c2ccccc2O)n1 77%
O=C(CCc1ccc(S(=O)(=O)NCCc2ccccc2)cc1)Nc1ccc2c(c1)OCO2 34%

GTP binding activity, inactive:
COc1ccc(OCc2nc3c4cc(OC)c(OC)cc4nc(=S)n3[nH]2)cc1 83%
O=C(N/C(=C\c1ccc(F)cc1)C(=O)N1CCCCCC1)c1ccccc1 98%
O=C(COc1ccc(S(=O)(=O)N2CCCC2)cc1)Nc1ccc2c(c1)OCCO2 99%
Cc1nn(C)cc1/C=C(/C#N)C(N)=O 101%
Cc1ccc(CN2CCN(Cc3ccc(C)s3)CC2CCO)cc1 (centres undefined) 100%
CN(C)CCN(C(=O)c1ccccc1Cl)c1nc2c(Cl)cccc2s1 100%
Nc1nonc1C(=O)NCCN=Cc1ccccc1O 103%
c1ccc(-n2cc(CNCCc3cscn3)c(-c3ccc4c(c3)OCO4)n2)cc1 99%
O=C(c1cccc(S(=O)(=O)N2CCc3ccccc32)c1)N1CCN(c2ccccn2)CC1 98%
COc1ccc(NC(=S)N2CCCN(Cc3cc(C)ccc3C)C2)cc1 98%
CN(C)c1ccc(N/C(N)=N/c2nc(C(F)(F)F)cc(C(F)(F)F)n2)cc1 93%
CCN(CC)CCn1c(NCc2ccc3c(c2)OCO3)nc2ccccc21 100%
CC(c1nccs1)N(C)c1nc2nonc2nc1N(C)C (centres undefined) 97%
Cn1c(=O)c2c(ncn2Cc2nnc(N)s2)n(C)c1=O 98%
Cc1ccnc2nc(C(=O)OCC(=O)N(CC(C)C)CC(C)C)nn12 97%
O=C(O)c1ccccc1CSc1ncccc1C(=O)O 93%
CN1CCN(c2ccc(S(=O)(=O)N3CCCCC3)cc2NC(=O)c2ccc(F)cc2F)CC1 98%
